Laboratory results from PubChem BioAssay (NCATS).
Inconclusive means that the source gave no clear call. Such entries were picked first, then a sample of the others. A potency beside an inconclusive call is a rough fit, not a confirmed value. Activity calls are given as the source filed them. The call rests on the fitted dose curve; in most records, active means well fitted curve in the direction sought with a large enough effect; inconclusive means small, poorly fitted or top-dose-only effect, or another doubt; inactive means no such curve, though single readings can be large; an effect the other way counts as inactive or inconclusive.

Assays:
[1] = qHTS of pediatric cancer cell lines to identify multiple opportunities for drug repurposing: Primary screen for BT-37 cells (AID 1347094)
Summary of the method: (§1)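 Primary screen of approved and investigational compounds on cells in growth media at 37 degrees C, 5% CO2. MIPE set at 11-point and NPC set at 8-point dilutions; viability scored by ATP-based luminescence at 48 hours.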

[2] = qHTS of pediatric cancer cell lines to identify multiple opportunities for drug repurposing: Primary screen for LAN-5 cells (AID 1347100); details: LAN-5 neuroblastoma viability, CellTiter-Glo luminescence, 48 h; activity change, negative = cytotoxic: at 46 µM (top of the series) unless noted
Summary of the method: (§2)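 Viability after 48 h compound treatment at 37C, 500-1,000 cells/well, read as ATP luminescence with CellTiter-Glo. Primary screens used 11-point (MIPE, 0.78 nM-46 µM) or 8-point (NPC, 0.59 nM-46 µM) final concentrations; follow-up screens used 11-point dilutions.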

[3] = qHTS of pediatric cancer cell lines to identify multiple opportunities for drug repurposing: Primary screen for NB-EBc1 cells (AID 1347095)
Summary of the method: as §1

[4] = qHTS of pediatric cancer cell lines to identify multiple opportunities for drug repurposing: Primary screen for SK-N-SH cells (AID 1347098); details: SK-N-SH viability, CellTiter-Glo luminescence, 48 h; activity change, negative = cytotoxic: at 57 µM (top of the series) unless noted; further: nearly all actives have a fitted effect of over 65% in size;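 on activity change, negative = cytotoxic: DMSO served as neutral control and bortezomib at 2.3 µM as positive control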
Summary of the method: (§3)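 Cells (500-1,000/well) rested 5 h, then received compounds for 48 h; metabolically active cells were measured by CellTiter-Glo luminescence. Final concentrations spanned up to 46 µM (MIPE, 11-point) or 0.59 nM-46 µM (NPC, 8-point) in primary screens, 11-point in follow-ups.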

[5] = qHTS of pediatric cancer cell lines to identify multiple opportunities for drug repurposing: Primary screen for U-2 OS cells (AID 1347096); further: nearly all actives have a fitted effect of over 50% in size
Summary of the method: as §2

[6] = qHTS of pediatric cancer cell lines to identify multiple opportunities for drug repurposing: Primary screen for Saos-2 cells (AID 1347097); details: Saos-2 viability, CellTiter-Glo ATP luminescence, 48 h; activity change, negative = cytotoxic: at 46 µM (top of the series) unless noted; further: nearly all actives have a fitted effect of over 40% in size
Summary of the method: as §1

[7] = qHTS of pediatric cancer cell lines to identify multiple opportunities for drug repurposing: Primary screen for NB1643 cells (AID 1347099); further: nearly all actives have a fitted effect of over 50% in size
Summary of the method: as §1

[8] = qHTS of pediatric cancer cell lines to identify multiple opportunities for drug repurposing: Primary screen for BT-12 cells (AID 1347101); further: nearly all actives have a fitted effect of over 25% in size
Summary of the method: as §3

[9] = qHTS of pediatric cancer cell lines to identify multiple opportunities for drug repurposing: Primary screen for Rh18 cells (AID 1347102); further: nearly all actives have a fitted effect of over 65% in size
Summary of the method: as §2
Potency means the concentration at half of the fitted maximal effect; tags describe the fitted curve by direction and shape.

In the case of `NCCc1cc(O)c(O)cc1O`, the Potency [1] is reported as “inactive” and the Potency [2] is reported as “inactive”.
With `COc1cc(CC(C)N)cc2c1OCO2` (stereo unspecified) the Potency [1] was “inactive” and the Potency [2] was “inactive”.
For `C#C[C@]1(O)C=C[C@H]2[C@@H]3CCC4=CC(=O)CC[C@@H]4[C@H]3CC[C@@]21CC`, the Potency [3] was inconclusive: 29.9 µM [cytotoxic, single point].
In the case of `CCCC[N+]1(C)[C@H]2CC(OC(=O)[C@H](CO)c3ccccc3)C[C@H]1[C@H]1O[C@H]12` (stereo partly specified), the Potency [1] is reported as inconclusive: 1.22 µM [cytotoxic, partial curve, poor fit] and the Potency [4] is reported as “inactive”.
With `CCOP(=O)(OCC)C(C)NC(=O)N(CCCl)N=O` (stereo unspecified) the Potency [3] was inconclusive: 23.5 µM [cytotoxic, partial curve, poor fit].
With `COC1(CS(=O)c2ccccc2)CCN(CCc2c[nH]c3ccc(F)cc23)CC1` (stereo unspecified) the Potency [1] was inconclusive: 2.17 µM [cytotoxic, partial curve, poor fit], the Potency [4] was inconclusive: 27.1 µM [cytotoxic, partial curve] and the Potency [2] was “inactive”.
With `COc1ccc(CN2CCNCC2)c(OC)c1OC` the Potency [3] was “inactive”.
With `C[C@]12CCC(=O)C(O)=C1CC[C@@H]1[C@H]3CCC(=O)[C@@]3(C)CC[C@@H]12` the Potency [3] was “inactive”, the Potency [5] was “inactive” and the Potency [6] was inconclusive: 13.2 µM [cytotoxic, partial curve]. The Potency [4] was “inactive” and the Potency [7] was inconclusive: 16.6 µM [cytotoxic, partial curve].
In the case of `CNC(=O)c1ccc(N2C(=S)N(c3ccc(C#N)c(C(F)(F)F)c3)C(=O)C23CCC3)cc1F`, the Potency [3] is reported as inconclusive: 37.2 µM [cytotoxic, partial curve, poor fit], the Potency [5] is reported as inconclusive: 23.5 µM [cytotoxic, partial curve, poor fit] and the Potency [7] is reported as inconclusive: 37.2 µM [cytotoxic, single point]. For the same compound, the Potency [2] was inconclusive: 23.5 µM [cytotoxic, single point].
For `Cc1c(C(=O)Nc2cccc(C(F)(F)F)c2)cc(-c2ccccc2)n1CCCN1CCOCC1`, the Potency [3] was active: 18.7 µM, the Potency [5] was inconclusive: 14.8 µM [cytotoxic, partial curve] and the Potency [4] was active: 24.1 µM. For the same compound, the Potency [8] was inconclusive: 24.3 µM [cytotoxic, partial curve] and the Potency [9] was inconclusive: 20.9 µM [cytotoxic, partial curve].
In the case of `CCCCC/C=C\C/C=C\C/C=C\C/C=C\CCCC(=O)NCC(=O)O`, the Potency [3] is reported as inconclusive: 33.5 µM [cytotoxic, single point] and the Potency [6] is reported as inconclusive: 15 µM [cytotoxic, single point].
For `C=CCN1C[C@H](C)N([C@H](c2ccc(C(=O)N(CC)CC)cc2)c2cccc(OC)c2)C[C@H]1C`, the Potency [3] was “inactive”, the Potency [6] was “inactive” and the Potency [8] was “inactive”.
